Assay results from publication PMC12136788.
Positions count from the first letter of the chain named. The list shows a part of the results.

B1: chr11:47008823:47008824:+_ENSG00000149179_ENST00000278460|hu_hu|FALSE|FALSE (ssRNA)
RNA: GGGAGUUCUACAGUCCGACGAUCUCCCUGGCAUACACUGUUAAAAUAUUCAGUGAAGAACCUGGCAAUUCCAUAUUGGCUAAUAUCUUCCCUGUUUUCUAGCAGCUGGCACACUGCAUCCUCCAUGUAGGUGAGGACAUGUCGCAACAGAGGAUUGAGCAUCA
B2: 24703985_24704105_2818_3pUTR_ENSG00000112304_ENST00000230048|human|control|control (ssRNA)
RNA: GGGAGUUCUACAGUCCGACGAUCUGUUUAUUCAUGCUUAACGCCCUUCUCAAGUAUACUCUCCAUCUGCUCUUCAUUGAUGUUACUUUUGAGCGCCUGGUCAAGGUGUCCUGGUUUUGCCCUAUGUGUGGUACUUACUACUAGCAACAGAGGAUUGAGCAUCA
B3: chr3:176767854:176767855:-_ENSG00000177565_ENST00000430069|hu_hu|hu_hu_hu_mus_False|48_88 (ssRNA)
RNA: GGGAGUUCUACAGUCCGACGAUCGACAUCCUUGUUACUGGGCACGUCUUGCCCUCCUUCCCGUAUGCAGUGUCUAAGCACGAGCUGUGUAGAGCCACUCGUGCUGUUCUCACUGAGGUUCCAGAUUCUUGCCGUGGAGUCUCCCAACAGAGGAUUGAGCAUCA
B4: chr12:45383586:45383587:+_ENSMUSG00000036257_ENSMUST00000043082|perfect_dup|FALSE|FALSE (ssRNA)
RNA: GGGAGUUCUACAGUCCGACGAUCGUAAAUAUAUAUAUCUACAGUCAGAUUAAUAGACAUAACUUAAAAAUCAUUUAUUUUCUAUGACAUUCUCUCACUUCUUGAACGCUUCAUUUAAGAAAUGCCAUAAUUCAUGGUCUUACUCAACAGAGGAUUGAGCAUCA
B5: chr17:60770872:60770873:+_ENSG00000011028_ENST00000303375|hu_hu|hu_hu_hu_mus_True|38_108 (ssRNA)
RNA: GGGAGUUCUACAGUCCGACGAUCUCUCUUUUCUUUUAAAAAAAAAGACAAACAAUAAUAGCACAUUUCGAGAAUCAAGAACUACAAUAGAGGGUCCAUGUCUUCGAUUUGUUCACAUCGUCCUGCACUGGGACACGGGGACUGCAACAGAGGAUUGAGCAUCA
B6: 102452692_102452812_2354_CDS_ENSG00000197102_ENST00000360184|human|control|control (ssRNA)
RNA: GGGAGUUCUACAGUCCGACGAUCGACUUCUUUGGAUAGUGUGAUAAUCUCAGGAAGAAAGUUAACUUUCAGCUUAAGCACAUUUCCAGUUCGGCCCCGAACCCGAGUACUUUCGAUGGUGAAAAUGCGCCCCGAGACACCGAGCAACAGAGGAUUGAGCAUCA
B7: chr13:3555642:3555643:+_ENSMUSG00000021218_ENSMUST00000059515|mus_hu|FALSE|FALSE (ssRNA)
RNA: GGGAGUUCUACAGUCCGACGAUCAUCAAAUUUCUUAUACACAUCUCGCAUUGUGGUCUUCUUAGGAUCAAUGCCUUCAAAAGUUCUUGGAUCUUUUUCAUCGAAGUUGGCAACAUACACUAGGAAUUUCCUGAAGCGACGUUUCAACAGAGGAUUGAGCAUCA
B8: chr2:198267414:198267415:-_ENSG00000115524_ENST00000335508|hu_hu|FALSE|FALSE (ssRNA)
RNA: GGGAGUUCUACAGUCCGACGAUCCUUAAUACCAGUGUGUCUCGCUUGCCAGGACUUCUUGCUUUUGCACACAGCUUUUAAGAAGGGCAAUAAAGAAGGAAUGCCCAGGGCAGAGGCUACAACAGCAAAAGCUCUAGCUGUUGUCAACAGAGGAUUGAGCAUCA
B9: 109380955_109381075_4146_CDS_ENSG00000153201_ENST00000283195|human|control|control (ssRNA)
RNA: GGGAGUUCUACAGUCCGACGAUCGCUGUUACAAUGCCACCAAGACCCUUCUUUCUUUGCAACCUGAAAUUCAAAAUUCAGGUUUCCAGCAUCAGAUUUGCAAAUAUCCUUGUUAUCAUGACUUGUGGGUUCUUUUACAAUUCUCAACAGAGGAUUGAGCAUCA
B10: chr12:80258887:80258888:-_ENSMUSG00000021124_ENSMUST00000055262|mus_mus|motif|central (ssRNA)
RNA: GGGAGUUCUACAGUCCGACGAUCAUUUACCAGUCUGCUCUUAGUACGUUCCAACUGGUCUCGUUGCUCCCCCAACUCUUCGGUGAUUUCUGUACCAAUUUGAUCAGUUUCUGUGGCAAUCCGAUGAGAACGCUCAAUGCUUUGCAACAGAGGAUUGAGCAUCA
B11: chr14:31077228:31077229:+_ENSG00000092140_ENST00000206595|hu_hu|FALSE|FALSE (ssRNA)
RNA: GGGAGUUCUACAGUCCGACGAUCUGUUGCAGUAUUUAUCCUGAUUAUAAUCUGUGCCACAUCAAAGUCUGAAACAUCAUCUAAAAUUGGCUGGGUAUUUUCUGGUCCAUAAACAAGGCAGUUAAACAAGGUUUUAGAAAAGAACAACAGAGGAUUGAGCAUCA
B12: 77378017_77378137_4513_3pUTR_ENSG00000048649_ENST00000308488|human|control|control (ssRNA)
RNA: GGGAGUUCUACAGUCCGACGAUCCAUCUUCCUCCUCUUCUGGUGCUCCUGCCUCCUGCCCACCACUUGUCCCAUUGGAGGCUAGGCUUGCACUGGCUGUGCUGUUGUCCUUGGGGGUCUGAGACUUCUCAGUAGGCUUGCCAACAACAGAGGAUUGAGCAUCA
B13: chr1:93819538:93819539:+_ENSG00000117505_ENST00000370267|hu_mus|motif|central (ssRNA)
RNA: GGGAGUUCUACAGUCCGACGAUCCUCUUCAGGAAUGCCGAGGUUUUCCAAACGAGAACUGGCCUUUCUUCUUUUUAAUGCGGCUGUCUUGCAUUCUUGUAAGACUUCUUUUACUUCACUGAUGUAAGAGCCAAAGCCCAAACUCAACAGAGGAUUGAGCAUCA
B14: chrX:69798090:69798091:-_ENSMUSG00000031343_ENSMUST00000055966|mus_mus|mus_mus_mus_hu_False|78_78 (ssRNA)
RNA: GGGAGUUCUACAGUCCGACGAUCAAGUCCCCGGGUUCUUGUCGUCUUGAUUCCCCUUGGCUAGUGGUUCCAGGGAGAAUAUUAAUCAGGAAAAGAAUCCCAAGGCUGGUCAUGUAACAGUGACUUGUUUGUGUGAUUAUCAUCCAACAGAGGAUUGAGCAUCA
B15: chr3:176767854:176767855:-_ENSG00000177565_ENST00000430069|hu_hu|hu_hu_hu_mus_False|68_78 (ssRNA)
RNA: B3 RNA with U48C, C60U, G66A, G69A, U87C, A92G
B16: chr1:220276048:220276049:+_ENSG00000067704_ENST00000302637|hu_hu|hu_hu_hu_mus_True|68_98 (ssRNA)
RNA: GGGAGUUCUACAGUCCGACGAUCGCAAAUUGCCUGGUUGGCUGGAAUUGUCCAAGGCUGGGUGGUCCAGACCAAAACGCUAACAGGGGAUGAGGCAUCUGUAAGAGACUCCAACUUCGGAGGAGGUCUCAGGAGGGGGAAUCUCAACAGAGGAUUGAGCAUCA
B17: 128999148_128999366_914_CDS_ENSMUSG00000057236_ENSMUST00000102598|mouse|control|control (ssRNA)
RNA: GGGAGUUCUACAGUCCGACGAUCUAAGCAAUUCACUUCAGCUGUGUGAGCAUCAACCGAGUGGCUUGGCUUGGAAGUAUUGUUUGAACGAGUGUCCCAAAUCAUAAGCUUCUGGUCAUCAGCAACUGAGCCAAAUAGAGACUCCAACAGAGGAUUGAGCAUCA
B18: 42867276_42867396_6629_CDS_ENSG00000105429_ENST00000334370|human|control|control (ssRNA)
RNA: GGGAGUUCUACAGUCCGACGAUCCCAAACACAGUGCUGCCAGCCCCCAUCUGCUCCCUUAGAGUCCAGGCAGGAGGUACAGUUGGGUAGGAGGUGACAAGGGGUGGGGCAGGGCAGUGGGGGUGAUGAUUCCACCGGCAUGGGCAACAGAGGAUUGAGCAUCA
B19: chr2:168997265:168997266:-_ENSG00000198648_ENST00000355999|hu_hu|motif|central (ssRNA)
RNA: GGGAGUUCUACAGUCCGACGAUCUUUAUUUCGGGUAACAUCACCCCCUGUUGCUAGGAACGCACUUACCCCAAAAUCUGCGGUUUGUACUGAACCAUCCUCACCCAGAAGAAUAUUACCAGCUUUCAAAUCCCUGUGAAUCUGCAACAGAGGAUUGAGCAUCA
B20: chr2:127988141:127988142:+_ENSMUSG00000027381_ENSMUST00000110341|mus_hu|FALSE|FALSE (ssRNA)
RNA: GGGAGUUCUACAGUCCGACGAUCCUGUCAAAAUUCAUCAGUGCAAAACACAAGUAAGCCAGGGAAACUGCAAUACAAAUGCUACAUACGCUGGGUCCUAGAAAACAGGUUAGUGAUGGAUCAGUAUACAGCCAGAUCAGUGCUCAACAGAGGAUUGAGCAUCA
B21: chr11:60965389:60965390:-_ENSMUSG00000042506_ENSMUST00000041683|mus_mus|FALSE|FALSE (ssRNA)
RNA: GGGAGUUCUACAGUCCGACGAUCCCCCUCAAAAUGACAAGGGAAAGAAAAGUGACAUAAAUGUCUUGGUAAUAAAACUCCUAACCACAGUACAAUCAUUGGAUUUUUUUUCCCUCACGAUUUUUUAUUUCAAAGCUAUAAUAACAACAGAGGAUUGAGCAUCA
B22: chr12:101444792:101444793:+_ENSMUSG00000001175_ENSMUST00000110082|mus_mus|FALSE|FALSE (ssRNA)
RNA: GGGAGUUCUACAGUCCGACGAUCUGAUGUAGGGGCUUGACUUUAGGGGCAGGACCACCGACCAAUACAUGCAGACUUUGUGUGUGGACAGAGGGGCUUCUGACAUUCAGCUUCGCUAGAUACAAACAGAAUGAAGAAAUGAACCAACAGAGGAUUGAGCAUCA

target: T1, UNK ZnF1-3 (human, UniProt Q9C0B0 31-174); assay: nsRBNS (natural sequence RNA bind-n-seq); RBNS binding buffer (assumed for nsRBNS): 25 mM Tris pH 7.5, 150 mM KCl, 3 mM MgCl2, 0.01% Triton X-100, 500 ug/ml BSA, 20 U/ml SUPERase-In, 4 C; UNK is unkempt and MSI1 is Musashi-1; names of the RNAs are library labels; protein concentration not given here; high values mean tight binding
T1 sequence: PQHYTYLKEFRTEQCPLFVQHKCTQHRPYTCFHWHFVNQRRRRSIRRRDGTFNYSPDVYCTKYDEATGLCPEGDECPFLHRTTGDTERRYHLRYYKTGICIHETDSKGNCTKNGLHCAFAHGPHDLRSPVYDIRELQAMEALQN

Row | Binder | binding signal [enrichment R]
1 | B1 | 0.786
2 | B2 | 0.373
3 | B3 | 0.4
4 | B4 | 0.46
5 | B5 | 0.723
6 | B6 | 0.688
7 | B7 | 0.846
8 | B8 | 1.06
9 | B9 | 0.689
10 | B10 | 0.569
11 | B11 | 1.57
12 | B12 | 0.916
13 | B13 | 0.448
14 | B14 | 0.496
15 | B15 | 0.458
16 | B16 | 1.65
17 | B17 | 1.39
18 | B18 | 1.28
19 | B19 | 1
20 | B20 | 1.64
21 | B21 | 1.2
22 | B22 | 1.71
